Reference: the supplement of paper PMC10126150
Values marked as one replicate rest on one cluster of the flow cell; about a third of the high ones do not repeat.

system: ATP; assay: switch fluorescence ratio, 500 uM ATP over buffer (Cy3 cluster intensity, sum of 5 cycles each) (fold (ratio)); higher = stronger signal-on switching upon ATP binding; sequences stand for … in TCGTCGGCAGCGTCAGATGTGTATAAGAGACAGTTTTTTTTTTTTTTTTTTTTTTTTT…TC; details: aptamer strand: ATP DNA aptamer (quencher-CACCTGGGGGAGTATTGCGGAGGAAGG + anchor), 100 nM annealed; ATP concentration: 500 uM; one replicate
Summary of the method: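 Five buffer/ATP imaging cycles were run on Cy3-labelled switching-strand clusters on a modified Illumina MiSeq flow-cell, with NaOH stripping and re-annealing between cycles. In each cycle, clusters annealed to 100 nM quencher-labelled ATP aptamer were imaged in selection buffer, then after 15 min with 500 uM ATP at 22 °C. Per cluster, the fluorescence ratio is summed target-cycle over summed buffer-cycle Cy3 intensity, averaged per switch-domain sequence. Only clusters within 100-1000 RFU were kept.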
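Note: ATP exposure 15 min at 22 °C before imaging.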

Sequence	switch fluorescence ratio
TTTACGTCAT	1.19
TAAGTTTTTG	0.999
CGTATACTGG	1.05
TTGGTTATAT	0.967
ACTAAGAATA	1.04
CGTGTACTCA	1.22
AAGGAAATGA	1.04
GTTAGATCAG	1.03
GAGGGACAG	1.02
AAGCTGGAT	1.12
TAAAGCGGGT	1.02
ACGCGGGACG	1.04
AGAAGGCGAT	0.982
GCGAGTAGGT	0.984
TCCACTGCTC	2.13
GTTCCGTATT	0.993
TCGGTATCAA	0.975
CAATTACTGC	1.02
CACGAGGGGC	0.988
GAGTAGGGTG	0.965
CCAGGCAACG	1.04
ATAGTGCCTG	1
TACATTCCAG	0.995

Sequence	switch fluorescence ratio
CGGCGGCCGA	0.929
ACGGCTGGGC	1
TGCTGTGAT	0.956
TTCTTTTTAA	1
AATGGGAGTT	1.03
AGTACTACA	1.01
TGAACAAAC	1.05
TGCATAAGT	1.11
TGAAACAAAG	1.03
TTTCGATACT	1.01
AGAGTCTCAT	0.92
AGCAGCGGAC	1.77
TATGGCAGAG	0.975
CATAGGTAGC	1.02
GCTTTGGGCG	1.02
GAGTCCGATG	1.13
TCACTTCACG	1.22
ATCGTAAATA	0.993
ACTCTCTTTG	1.02
TGATATAACT	0.957
AGGACGAGCC	1.05
ATGGTATTGG	1.03
CGTAACTCGA	0.984

Sequence	switch fluorescence ratio
ACTGGGCTTG	1.04
GAACCTTAAG	0.974
TCATGAGTGG	0.988
GGTGCCTTGG	1.03
CGTAAATAAT	0.996
AAGTATCTGC	1.06
TAAATACTAG	0.998
AATTGATAGT	1.04
ATAGGTCCAA	1.04
CCATCAGTCT	1.03
CACTAACGAC	1.32
CTGGGGTAA	1
GCAGAGCCTA	1.04
GGGAGAACCG	0.956
GATGGGATA	0.947
ACAATGAGCG	1.08
CTACCCGCTG	1.68
AGAAGGAGGG	0.989
GTGGTAAGC	1.01
CAGTTGAATC	0.98
CCCATGCATT	0.979
TTATTCATAT	0.991
GGGACGTGTA	1.01

Sequence	switch fluorescence ratio
AGAGCGGGTG	1.09
ATAGAAATCA	1.03
GTAATTCAAT	1.02
GAACCGTGCA	1.1
CGAGCAGAAC	4.33
TATCTTCAAC	1.04
TAGGAACCGT	0.996
CACTTGATC	1.01
GGATTGACAG	1.02
TCGTCATGA	0.959
TGTATGTTGA	0.988
TCTGAAGGTC	1.1
GCGGCAAGCC	1.17
CGGGTTCGAT	0.98
AAACGCACAT	1.18
CGACCGCCTC	4.17
TTAGACTCTT	0.973
GCGGGTCTAC	1.02
CACTATTTCA	0.985
TTATGCGTAT	1
TAGCTGGTCA	0.977
GGGGTACTAA	1.15
AAGCCGTTCT	0.995

Sequence	switch fluorescence ratio
CCGATTTGCA	1.67
TCATATCTTT	0.981
GGGAGTACAT	0.957
AATTTTCAGT	1
ACCCTATTCA	1.09
ATCGTAATAG	1.34
AAAACCGTCA	1.2
CACACGGGCT	0.996
ACGTCCTTCT	0.991
CCTTTCACGC	2.85
TACCCCGCCT	1.15
TCAAGCGGTG	1.03
GTAACAGGTT	1.01
TAGGACGTT	1.05
CATAGGGAAA	0.961
TACAAAACTT	0.981
GACGGCTGAC	1.05
TCGCATAGTA	1.03
GGTAAAAGGC	0.984
AGGCATGTTT	0.968
CACAGCTAAG	1.09
ATATGGGTCG	0.958
TAACCGCTGG	1.01

Sequence	switch fluorescence ratio
GCTAGCAATT	0.98
GTGCGCAAAG	1.04
TATGTTTCTG	0.99
ACAGTTATCC	1.03
CTCTCCGCAA	0.947
TGCTACAATG	1
CCTAGATCGG	0.974
TGCACGAGGG	0.996
GTTGCACTAC	2.81
TTTGGTTCAT	1.04
GTGGGGACCA	0.989
TTGTCTACCG	1.06
GTGAGACACA	0.979
GTCGTTAGTC	1
GAAGTCGCTG	1
TGGTGTGAC	1.05
CCATACTCCA	1.48
TTCAAAGGA	0.939
AGGTATGAGG	0.993
AGACATAAGA	1.05
GCATGTTAAA	1.02
TAAGTTTCGA	1.01
CTCTCCTGGG	1.38

Sequence	switch fluorescence ratio
TAAAAGTGCT	1.03
AATGACCACG	1.05
TAGAGTACAC	1.03
TCTAAGGCAT	1.02
ATTGCGGTCG	1.04
CGCTGATAGG	1.02
CACAGGGTCC	1.03
GCGGCTAGGC	1.04
TCAATCGTTA	1.02
ACACGAGGGC	0.983
ATTTTGGAAT	1.05
TAGAGGGCAC	1.18
TACTGCATCT	1.02
TTCCCCTTAG	1.05
TACAACCGAC	1.9
TTTAGACACC	0.913
GTCAGGGGAG	0.93
TGAACGGTT	0.978
CCAGCAGTCG	1.1
